# Results from US10299477B2 (priority 2015, dated 2019).
# What was measured:
# Format in all cases: in vivo
# [1] = test system: Blumeria graminis f sp. hordei; experiment: Test Example D: Powdery mildew on barley; conditions: for Test D control value (powdery mildew on barley): preventive, control value class; for Test D (control value class, powdery mildew on barley): in vivo
# Source text: [Test Example D] Powdery Mildew on Barley
# After the sprayed dilutions were dried, conidia of Blumeria graminis f sp. hordei were inoculated to the plants by shaking off.
# Botrytis cinerea = experiment: Test Example B: Gray mold on tomato; conditions: for Test B control value (gray mold on tomato): preventive, control value class; for Test B (control value class, gray mold on tomato): in vivo
# Source text: [Test Example B] Gray Mold on Tomato
# Seeds of a test plant (tomato variety: Oogata Fukuju) were planted followed by cultivating until three to five first leaves (true leaves) appeared.
# Puccinia recondita = experiment: Test Example E: Brown rust on wheat; conditions: for Test E control value (brown rust on wheat): preventive, control value class; for Test E (control value class, brown rust on wheat): in vivo
# Source text: [Test Example E] Brown Rust on Wheat
# Alternaia brassicicola = experiment: Test Example C: Alternaria sooty spot on cabbage; conditions: for Test C control value (Alternaria sooty spot on cabbage): preventive, control value class; for Test C (control value class, Alternaria sooty spot on cabbage): in vivo
# Source text: [Test Example C] Alternaria Sooty Spot on Cabbage
# Seeds of a test plant (cabbage variety: Shikidori) were planted followed by cultivating until the cotyledons extended.
# Plasmopara viticola = experiment: Test Example G: Downy mildew on vine; conditions: for Test G control value (downy mildew on vine): 250 ppm spray (2.5 ml/pot), preventive, control value class; for Test G (control value class, downy mildew on vine): 250 ppm, sprayed 2.5 ml/pot before inoculation, evaluated 7-10 days after inoculation
# Source text: [Test Example G] Downy Mildew on Vine
# Seeds of a test plant (grape variety: Neomuscat) were planted followed by cultivating until three to four first leaves appeared. […] After the sprayed dilutions were dried, a zoosporangia suspension (1-2×10^4 zoosporangia/ml) of Plasmopara viticola was inoculated to the plants by spraying.
structure (smiles),measurement,setting,value
CCn1c(-c2c(F)cccc2F)c(-c2cc(OC[Si](C)(C)C)ccc2Cl)ccc1=O [Compound 260],Test D control value (powdery mildew on barley),[1]; 250 ppm spray,H (H shows more than 50% of control values)
same,Test B control value (gray mold on tomato),Botrytis cinerea; 250 ppm spray,L (L shows 50% or less of control values)
same,Test E control value (brown rust on wheat),Puccinia recondita; 250 ppm spray,L (L shows 50% or less of control values)
same,Test C control value (Alternaria sooty spot on cabbage),Alternaia brassicicola; 250 ppm spray,H (H shows more than 50% of control values)
same,Test G control value (downy mildew on vine),Plasmopara viticola; 7-10 days after inoculation,L (L shows 50% or less of control values)
Cn1c(-c2c(F)cccc2F)c(-c2cccc(Cl)c2)cc(Br)c1=O [Compound 190],Test D control value (powdery mildew on barley),[1]; 250 ppm spray,H (H shows more than 50% of control values)
same,Test B control value (gray mold on tomato),Botrytis cinerea; 250 ppm spray,H (H shows more than 50% of control values)
same,Test E control value (brown rust on wheat),Puccinia recondita; 250 ppm spray,H (H shows more than 50% of control values)
same,Test C control value (Alternaria sooty spot on cabbage),Alternaia brassicicola; 250 ppm spray,H (H shows more than 50% of control values)
same,Test G control value (downy mildew on vine),Plasmopara viticola; 7-10 days after inoculation,H (H shows more than 50% of control values)
CCn1c(-c2c(F)cccc2F)c(-c2cc(F)ccc2Cl)cc(Cl)c1=O [Compound 360],Test D control value (powdery mildew on barley),[1]; 250 ppm spray,H (H shows more than 50% of control values)
same,Test B control value (gray mold on tomato),Botrytis cinerea; 250 ppm spray,H (H shows more than 50% of control values)
same,Test E control value (brown rust on wheat),Puccinia recondita; 250 ppm spray,H (H shows more than 50% of control values)
same,Test C control value (Alternaria sooty spot on cabbage),Alternaia brassicicola; 250 ppm spray,H (H shows more than 50% of control values)
same,Test G control value (downy mildew on vine),Plasmopara viticola; 7-10 days after inoculation,L (L shows 50% or less of control values)
CCn1c(-c2c(F)cccc2F)c(-c2ccc(OC)cc2Cl)ccc1=O [Compound 735],"Test D (control value class, powdery mildew on barley)",[1],H (H shows more than 50% of control values)
same,"Test B (control value class, gray mold on tomato)",Botrytis cinerea,H (H shows more than 50% of control values)
same,"Test E (control value class, brown rust on wheat)",Puccinia recondita,H (H shows more than 50% of control values)
same,"Test C (control value class, Alternaria sooty spot on cabbage)",Alternaia brassicicola,H (H shows more than 50% of control values)
same,"Test G (control value class, downy mildew on vine)",Plasmopara viticola,H (H shows more than 50% of control values)
CCn1c(-c2c(F)cc(OC)cc2F)c(-c2cccc(OC)c2Cl)ccc1=O [Compound 633],"Test D (control value class, powdery mildew on barley)",[1],H (H shows more than 50% of control values)
same,"Test B (control value class, gray mold on tomato)",Botrytis cinerea,H (H shows more than 50% of control values)
same,"Test E (control value class, brown rust on wheat)",Puccinia recondita,H (H shows more than 50% of control values)
same,"Test C (control value class, Alternaria sooty spot on cabbage)",Alternaia brassicicola,H (H shows more than 50% of control values)
same,"Test G (control value class, downy mildew on vine)",Plasmopara viticola,H (H shows more than 50% of control values)
CCn1c(-c2c(F)cccc2F)c(-c2cc(OC)ccc2Cl)cc(OC)c1=O [Compound 371],Test D control value (powdery mildew on barley),[1]; 250 ppm spray,L (L shows 50% or less of control values)
same,Test B control value (gray mold on tomato),Botrytis cinerea; 250 ppm spray,H (H shows more than 50% of control values)
same,Test E control value (brown rust on wheat),Puccinia recondita; 250 ppm spray,H (H shows more than 50% of control values)
same,Test C control value (Alternaria sooty spot on cabbage),Alternaia brassicicola; 250 ppm spray,H (H shows more than 50% of control values)
same,Test G control value (downy mildew on vine),Plasmopara viticola; 7-10 days after inoculation,L (L shows 50% or less of control values)
Cn1c(-c2c(F)cccc2F)c(-c2cccc(Cl)c2)cc(Cl)c1=O [Compound 189],Test D control value (powdery mildew on barley),[1]; 250 ppm spray,H (H shows more than 50% of control values)
same,Test B control value (gray mold on tomato),Botrytis cinerea; 250 ppm spray,H (H shows more than 50% of control values)
same,Test E control value (brown rust on wheat),Puccinia recondita; 250 ppm spray,H (H shows more than 50% of control values)
same,Test C control value (Alternaria sooty spot on cabbage),Alternaia brassicicola; 250 ppm spray,H (H shows more than 50% of control values)
same,Test G control value (downy mildew on vine),Plasmopara viticola; 7-10 days after inoculation,H (H shows more than 50% of control values)
COc1cc(F)c(-c2c(-c3cc(F)cc(F)c3Cl)cc(Br)c(=O)n2C)c(F)c1 [Compound 717],"Test D (control value class, powdery mildew on barley)",[1],H (H shows more than 50% of control values)
same,"Test B (control value class, gray mold on tomato)",Botrytis cinerea,H (H shows more than 50% of control values)
same,"Test E (control value class, brown rust on wheat)",Puccinia recondita,H (H shows more than 50% of control values)
same,"Test C (control value class, Alternaria sooty spot on cabbage)",Alternaia brassicicola,H (H shows more than 50% of control values)
same,"Test G (control value class, downy mildew on vine)",Plasmopara viticola,H (H shows more than 50% of control values)
"CCn1c(-c2c(F)cccc2F)c(-c2cc(O)ccc2Cl)ccc1=O [Compound 234, 5-(2-chloro-5-hydroxyphenyl)-6-(2,6-difluorophenyl)-1-ethylpyridine-2(1H)-one]",Test D control value (powdery mildew on barley),[1]; 250 ppm spray,L (L shows 50% or less of control values)
same,Test B control value (gray mold on tomato),Botrytis cinerea; 250 ppm spray,H (H shows more than 50% of control values)
same,Test E control value (brown rust on wheat),Puccinia recondita; 250 ppm spray,H (H shows more than 50% of control values)
same,Test C control value (Alternaria sooty spot on cabbage),Alternaia brassicicola; 250 ppm spray,H (H shows more than 50% of control values)
same,Test G control value (downy mildew on vine),Plasmopara viticola; 7-10 days after inoculation,H (H shows more than 50% of control values)
CCOc1cccc(-c2ccc(=O)n(CC)c2-c2c(F)cccc2F)c1 [Compound 103],Test D control value,[1]; Powdery mildew on barley,H (H shows more than 50% of control values)
same,Test B control value,Botrytis cinerea; Gray mold on tomato,H (H shows more than 50% of control values)
same,Test E control value,Puccinia recondita; Brown rust on wheat,H (H shows more than 50% of control values)
same,Test C control value,Alternaia brassicicola; Alternaria sooty spot on cabbage,H (H shows more than 50% of control values)
same,Test G control value,"Plasmopara viticola; Downy mildew on vine, 250 ppm sprayed before inoculation, 7-10 days after inoculation",H (H shows more than 50% of control values)
COc1cc(F)c(-c2c(-c3cc(OC)ccc3Cl)cc(Br)c(=O)n2C)c(F)c1 [Compound 723],"Test D (control value class, powdery mildew on barley)",[1],H (H shows more than 50% of control values)
same,"Test B (control value class, gray mold on tomato)",Botrytis cinerea,H (H shows more than 50% of control values)
same,"Test E (control value class, brown rust on wheat)",Puccinia recondita,H (H shows more than 50% of control values)
same,"Test C (control value class, Alternaria sooty spot on cabbage)",Alternaia brassicicola,H (H shows more than 50% of control values)
same,"Test G (control value class, downy mildew on vine)",Plasmopara viticola,H (H shows more than 50% of control values)
CCn1c(-c2c(F)cc(C)cc2F)c(-c2cc(F)ccc2Cl)ccc1=O [Compound 707],"Test D (control value class, powdery mildew on barley)",[1],L (L shows 50% or less of control values)
same,"Test B (control value class, gray mold on tomato)",Botrytis cinerea,H (H shows more than 50% of control values)
same,"Test E (control value class, brown rust on wheat)",Puccinia recondita,H (H shows more than 50% of control values)
same,"Test C (control value class, Alternaria sooty spot on cabbage)",Alternaia brassicicola,L (L shows 50% or less of control values)
same,"Test G (control value class, downy mildew on vine)",Plasmopara viticola,L (L shows 50% or less of control values)
CCOC(=O)COc1ccc(Cl)c(-c2ccc(=O)n(CC)c2-c2c(F)cccc2F)c1 [Compound 307],Test D control value (powdery mildew on barley),[1]; 250 ppm spray,L (L shows 50% or less of control values)
same,Test B control value (gray mold on tomato),Botrytis cinerea; 250 ppm spray,H (H shows more than 50% of control values)
same,Test E control value (brown rust on wheat),Puccinia recondita; 250 ppm spray,H (H shows more than 50% of control values)
same,Test C control value (Alternaria sooty spot on cabbage),Alternaia brassicicola; 250 ppm spray,L (L shows 50% or less of control values)
same,Test G control value (downy mildew on vine),Plasmopara viticola; 7-10 days after inoculation,L (L shows 50% or less of control values)
CCn1c(-c2c(F)cc(F)cc2F)c(-c2cccc(OC)c2Cl)ccc1=O [Compound 618],"Test D (control value class, powdery mildew on barley)",[1],H (H shows more than 50% of control values)
same,"Test B (control value class, gray mold on tomato)",Botrytis cinerea,H (H shows more than 50% of control values)
same,"Test E (control value class, brown rust on wheat)",Puccinia recondita,H (H shows more than 50% of control values)
same,"Test C (control value class, Alternaria sooty spot on cabbage)",Alternaia brassicicola,H (H shows more than 50% of control values)
same,"Test G (control value class, downy mildew on vine)",Plasmopara viticola,H (H shows more than 50% of control values)
CCOc1cc(F)c(-c2c(-c3cc(F)cc(F)c3F)cc(Cl)c(=O)n2CC)c(F)c1 [Compound 580],"Test D (control value class, powdery mildew on barley)",[1],H (H shows more than 50% of control values)
same,"Test B (control value class, gray mold on tomato)",Botrytis cinerea,H (H shows more than 50% of control values)
same,"Test E (control value class, brown rust on wheat)",Puccinia recondita,H (H shows more than 50% of control values)
same,"Test C (control value class, Alternaria sooty spot on cabbage)",Alternaia brassicicola,H (H shows more than 50% of control values)
same,"Test G (control value class, downy mildew on vine)",Plasmopara viticola,L (L shows 50% or less of control values)
Cn1c(-c2c(F)cccc2F)c(-c2cc(F)cc(F)c2Cl)ccc1=O [Compound 553],Test D (control value class),"[1]; powdery mildew on barley, 250 ppm spray",H (H shows more than 50% of control values)
same,Test B (control value class),"Botrytis cinerea; gray mold on tomato, Botrytis cinerea, 250 ppm spray",H (H shows more than 50% of control values)
same,Test E (control value class),"Puccinia recondita; brown rust on wheat, Puccinia recondita, 250 ppm spray",H (H shows more than 50% of control values)
same,Test C (control value class),"Alternaia brassicicola; Alternaria sooty spot on cabbage, 250 ppm spray",H (H shows more than 50% of control values)
same,Test G (control value class),"Plasmopara viticola; downy mildew on vine, Plasmopara viticola, 250 ppm spray, 7-10 days after inoculation",H (H shows more than 50% of control values)
